Consider one protein from PMC10591012, “Mechanistic characterization of disulfide bond reduction of an ERAD substrate mediated by cooperation between ERdj5 and BiP” (The Journal of Biological Chemistry, 2023).

This series concerns the molecule itself. Kind of series: nonreducing SDS-PAGE; purified J-chain (5 uM) with or without 2.5-10 mM GSH at 30 °C, quenched with NEM, CBB G-250 staining; disulfide-linked oligomers.

B1: PA-tagged human J-chain (disulfide-linked J-chain oligomers) (natural protein)
chain: not shown
notes: immunoglobulin J-chain, human; eight cysteine residues, ~25 kDa per monomer as printed; cloned into pCAGGS with an N-terminal PA tag; Purified as disulfide-linked higher-order oligomers of unstated size; also called PA-J-chain; not shown: PA, N-terminal, kept
Take B1: the binding result is “binds”.
